# Measured values taken from PubChem BioAssay (Tox21).
# Several values for one entry are separate records, joined by “and”; a condition that tells them apart may be missing. Equal entries are not always repeated. Where a structure was tested more than once in an assay, its records may differ in their call. Activity calls are given as the source filed them. Unless noted, the call rests on the fitted dose curve; in most records, active means well fitted curve in the direction sought with a large enough effect in the repeat runs; inconclusive means weak or mixed curves; inactive means no such curve, though single readings can be large; an effect the other way counts as inactive or inconclusive.
# Key:
# [1] = qHTS assay to identify small molecule antagonists of the androgen receptor (AR) signaling pathway - cell viability counter screen (AID 743033; further: nearly all actives have a fitted effect of over 45% in size; on activity change, negative = cytotoxicity: on the % scale 0 is the no-effect control and ±100 the full control effect); conditions: AR-bla HEK293 viability, CellTiter-Glo luminescence, 16 h; activity change, negative = cytotoxicity: at 58.5 µM (top of the series)
# [2] = qHTS assay to identify small molecule antagonists of the thyroid receptor (TR) signaling pathway - cell viability counter screen (AID 743064); conditions: GH3.TRE-Luc viability, CellTiter-Fluor, 24 h; activity change, negative = cytotoxic: at 70.3 µM (top of the series) unless noted; further: nearly all actives have a fitted effect of over 50% in size; on activity change, negative = cytotoxic: on the % scale 0 is the no-effect control and ±100 the full control effect
# Method in brief: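 Same-well viability check: GH3.TRE-Luc cells stimulated with 1 nM T3 alongside test compound for 23.5 h, followed by CellTiter-Fluor fluorescence.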
# [3] = molecular target: Estrogen receptor (Homo sapiens) (UniProt P03372); assay: qHTS assay to identify small molecule antagonists of the estrogen receptor alpha (ER-alpha) signaling pathway (AID 743069; active means well fitted curve in the direction sought with a large enough effect in the signal ratio in the repeat runs, not every such curve was filed as active; inconclusive means weak or mixed curves, or effect the other way; inactive means no such curve, though single readings can be large or run the other way; the % refers to the signal ratio); conditions: HEK293 ER-alpha-UAS-bla, beta-lactamase ratio, antagonist mode; activity, negative = inhibition: at 69.4 µM (top of the series) unless noted
# Sequence of UniProt P03372 (P03372 whole entry, looked up): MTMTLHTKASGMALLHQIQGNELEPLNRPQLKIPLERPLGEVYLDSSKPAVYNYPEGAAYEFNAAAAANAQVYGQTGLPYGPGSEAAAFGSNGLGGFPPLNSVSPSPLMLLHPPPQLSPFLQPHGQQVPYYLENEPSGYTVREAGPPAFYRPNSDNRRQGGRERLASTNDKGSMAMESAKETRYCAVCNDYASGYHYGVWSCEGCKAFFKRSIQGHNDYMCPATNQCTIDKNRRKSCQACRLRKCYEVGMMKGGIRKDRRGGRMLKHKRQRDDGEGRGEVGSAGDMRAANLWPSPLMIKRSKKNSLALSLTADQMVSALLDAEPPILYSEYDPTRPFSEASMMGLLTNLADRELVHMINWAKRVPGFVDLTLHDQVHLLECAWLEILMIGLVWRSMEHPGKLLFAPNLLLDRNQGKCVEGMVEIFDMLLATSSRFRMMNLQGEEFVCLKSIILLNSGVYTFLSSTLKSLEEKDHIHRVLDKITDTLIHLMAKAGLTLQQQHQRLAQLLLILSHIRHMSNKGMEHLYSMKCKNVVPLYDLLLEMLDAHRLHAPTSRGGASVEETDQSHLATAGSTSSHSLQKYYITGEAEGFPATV
# Method in brief: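 Antagonist mode: compounds in DMSO were co-added with 17beta-estradiol to ER-alpha-bla HEK293 cells (2% charcoal-stripped serum) and left 18 h at 37C. Reporter inhibition was measured as FRET fluorescence after 2 h LiveBLAzer substrate at room temperature.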
# [4] = qHTS assay to identify small molecule antagonists of the estrogen receptor alpha (ER-alpha) signaling pathway - cell viability counter screen (AID 743074; calls by dose curve;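 further: HEK293 cells carrying ER-alpha-UAS-bla reporter stimulated with 17beta-estradiol; nearly all actives have a fitted effect of over 45% in size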); conditions: ERalpha-bla HEK293 viability, CellTiter-Glo luminescence, 18 h; series mostly up to 69.4 µM
# [5] = molecular target: Estrogen receptor (Homo sapiens) (UniProt P03372); assay: qHTS assay to identify small molecule agonists of the estrogen receptor alpha (ER-alpha) signaling pathway using the BG1 cell line (AID 743079); conditions: BG1Luc4E2 cells, ERE-luciferase agonist, 22 h; activation: at 70.3 µM (top of the series) unless noted; further: nearly all actives have a fitted effect of over 20% in size; on activation: on the % scale 0 is the no-effect control and ±100 the full control effect
# [6] = qHTS assay to identify small molecule antagonists of the estrogen receptor alpha (ER-alpha) signaling pathway using the BG1 cell line (AID 743080; calls by dose curve;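 further: BG1 cells stimulated with 17beta-estradiol alongside compound; nearly all actives have a fitted effect of over 25% in size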); conditions: BG1Luc4E2 ERE-luciferase antagonist mode, luminescence; activity change, negative = inhibition: at 70.3 µM (top of the series) unless noted
# Method in brief: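 Readout is ONE-Glo luminescence, taken 30 min at room temperature after reagent addition, preceded by a CellTiter-Fluor viability read; BG1-Luc-4E2 cells had received compound and 17beta-estradiol for 21.5 h at 37 C.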
# Aromatase (Homo sapiens) = Aromatase (Homo sapiens) (UniProt P11511); assay: qHTS assay to identify aromatase inhibitors (AID 743083); conditions: MCF-7 aro ERE, testosterone-driven ERE luciferase, 24 h; series mostly up to 70.3 µM; further: nearly all actives have a fitted effect of over 55% in size
# Sequence of UniProt P11511 (P11511 whole entry, looked up): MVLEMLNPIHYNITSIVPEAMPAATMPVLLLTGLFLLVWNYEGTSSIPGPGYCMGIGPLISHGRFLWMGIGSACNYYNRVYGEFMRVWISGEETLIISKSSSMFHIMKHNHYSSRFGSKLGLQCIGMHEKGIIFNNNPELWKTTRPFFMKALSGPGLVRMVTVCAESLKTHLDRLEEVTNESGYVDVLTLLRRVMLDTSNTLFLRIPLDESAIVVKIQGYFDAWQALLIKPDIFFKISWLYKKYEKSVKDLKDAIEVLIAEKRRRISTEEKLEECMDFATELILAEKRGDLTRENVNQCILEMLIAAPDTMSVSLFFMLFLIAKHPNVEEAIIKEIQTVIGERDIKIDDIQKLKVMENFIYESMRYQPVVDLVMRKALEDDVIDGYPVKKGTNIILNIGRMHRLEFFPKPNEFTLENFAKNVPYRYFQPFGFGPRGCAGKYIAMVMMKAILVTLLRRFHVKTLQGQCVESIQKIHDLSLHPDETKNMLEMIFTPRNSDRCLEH
# [7] = tested on: thyroid hormone receptor (rat, GH3 cells); assay: qHTS assay to identify small molecule agonists of the thyroid receptor (TR) signaling pathway (AID 743066; calls by dose curve; on activation: on the % scale 0 is the no-effect control and ±100 the full control effect); conditions: GH3.TRE-Luc cells, TR agonist luciferase, 24 h; activation: at 83.9 µM (top of the series) unless noted
# [8] = qHTS assay to identify small molecule antagonists of the estrogen receptor alpha (ER-alpha) signaling pathway using the BG1 cell line - cell viability counter screen (AID 743081); conditions: BG1Luc4E2 viability, CellTiter-Fluor, 22 h; series mostly up to 70.3 µM;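 further: compound given together with 17beta-estradiol as the ER stimulus; nearly all actives have a fitted effect of over 45% in size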
# [9] = qHTS assay to identify aromatase inhibitors - cell viability counter screen (AID 743084); conditions: MCF-7 aro ERE viability, CellTiter-Fluor, 24 h; activity change, negative = cytotoxicity: at 70.3 µM (top of the series);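 further: cells stimulated with testosterone during compound exposure; nearly all actives have a fitted effect of over 55% in size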
# [10] = qHTS assay to identify small molecule antagonists of the thyroid receptor (TR) signaling pathway (AID 743065); conditions: GH3.TRE-Luc, T3-stimulated luciferase inhibition, 23.5 h; series mostly up to 70.3 µM; further: nearly all actives have a fitted effect of over 55% in size
# Method in brief: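 Antagonism measured as loss of luciferase signal in GH3 cells stably carrying a TRE-luciferase reporter, co-treated with compound and T3 (1 nM final) for 23.5 h at 37 C. Viability was read in the same well by CellTiter-Fluor.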
# [11] = molecular target: Estrogen receptor (Homo sapiens) (UniProt P03372); assay: qHTS assay to identify small molecule agonists of the estrogen receptor alpha (ER-alpha) signaling pathway (AID 743075; calls by dose curve;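 further: HEK293 GripTite cells with ER-alpha and UAS-driven beta-lactamase reporter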); conditions: HEK293 ER-alpha-UAS-bla, beta-lactamase FRET ratio, 18 h; series mostly up to 70.1 µM
# Potency means the concentration at half of the fitted maximal effect; tags describe the fitted curve by direction and shape or compound fluorescence and quenching.
compound,measurement,setting,value
CC(C)(C)c1cc(CO)cc(C(C)(C)C)c1O,Potency,[1],"inconclusive: 56 µM [cytotoxic, partial curve, poor fit]"
same,Potency,[2],"inconclusive: 69.9 µM [cytotoxic, single point]"
same,Potency,[3],"inconclusive: 49.9 µM [rising, single point]"
same,Potency,[4],"inconclusive: 49.9 µM [cytotoxic, partial curve, poor fit]"
same,Potency,[5],"inconclusive: 55.5 µM [inhibitor, partial curve]"
same,Potency,[6],active: 69.9 µM
same,Potency,Aromatase (Homo sapiens),"inconclusive: 62.3 µM [inhibitor, single point]"
O=C(CCCN1CCN(c2ccc(F)cc2)CC1)NC1c2ccccc2CSc2ccccc21 (configuration not stated),Potency,[1],"inconclusive: 9.52 µM [cytotoxic, partial curve, poor fit]"
same,Potency,[2],active: 10.6 µM
same,Potency,[7],"inconclusive: 8.41 µM [inhibitor, partial curve, poor fit]"
same,Potency,[3],active: 21.3 µM [inconclusive]
same,Potency,[8],"inconclusive: 13.3 µM [cytotoxic, single point]"
same,Potency,Aromatase (Homo sapiens),"inconclusive: 33.5 µM [inhibitor, single point]"
same,Potency,[9],"inconclusive: 33.5 µM [cytotoxic, single point]"
CN(C(=O)c1c(O)c2ccccc2n(C)c1=O)c1ccccc1,Potency,[1],"inconclusive: 0.0043 µM [cytotoxic, full curve, poor fit]"
same,Potency,[2],inactive
CN(C)Cc1cc(C(C)(C)C)c(O)c(C(C)(C)C)c1,Potency,[1],"inconclusive: 49 µM [cytotoxic, partial curve]"
same,Potency,[2],"inconclusive: 68.6 µM [cytotoxic, single point]"
same,Potency,[10],inconclusive: 68.6 µM [inhibitor]
same,Potency,[8],"inconclusive: 30.6 µM [cytotoxic, partial curve, poor fit]"
N=C(N)c1ccc(OCCCCCOc2ccc(C(=N)N)cc2)cc1,Potency,[1],"inconclusive: 26.8 µM [cytotoxic, partial curve, poor fit] and inconclusive: 4.34 µM [cytotoxic, full curve] and inconclusive: 11.8 µM [cytotoxic, partial curve]"
same,Potency,[2],inconclusive: 29.8 µM [cytotoxic]
same,activation,[7],inconclusive: -8.78% [phenotype inactive]
same,Potency,[3],active: 12 µM [inconclusive] and active: 15.4 µM [inconclusive] and active: 46.8 µM [inconclusive]
same,Potency,[4],"inconclusive: 21.8 µM [cytotoxic, partial curve]"
same,Potency,[5],"inconclusive: 18.8 µM [inhibitor, partial curve] and inconclusive: 30.5 µM [inhibitor, partial curve] and inconclusive: 26.1 µM [inhibitor, partial curve]"
same,Potency,[8],"inconclusive: 60.8 µM [cytotoxic, partial curve]"
CCOc1ccc2ccccc2c1C(=O)N[C@@H]1C(=O)N2[C@@H]1SC(C)(C)[C@@H]2C(=O)O,Potency,[1],"inconclusive: 0.0018 µM [cytotoxic, full curve, poor fit]"
same,Potency,[2],inactive
same,Potency,[5],inactive
C1OCOCO1,Potency,[1],inactive
same,Potency,[2],inactive
same,Potency,[8],inactive
O=[N+]([O-])C1(Br)COCOC1,Potency,[1],"inconclusive: 61.6 µM [cytotoxic, single point]"
same,Potency,[2],active: 17.2 µM
same,Potency,[7],"inconclusive: 48.6 µM [inhibitor, partial curve, poor fit]"
same,Potency,[6],active: 96.9 µM
Nc1nc2ccc(OC(F)(F)F)cc2s1,Potency,[1],"inconclusive: 23.9 µM [cytotoxic, single point]"
same,Potency,[10],active: 21.1 µM
same,Potency,[11],"inconclusive: 8.49 µM [falling, partial curve, poor fit]"
same,Potency,[6],"inconclusive: 3.76 µM [rising, partial curve]"
CC1(C)NC(=O)N(c2ccc([N+](=O)[O-])c(C(F)(F)F)c2)C1=O,Potency,[1],"inconclusive: 38.9 µM [cytotoxic, partial curve]"
same,Potency,[2],"inconclusive: 21.7 µM [rising, partial curve, poor fit]"
same,Potency,[4],"inconclusive: 15.5 µM [rising, partial curve, poor fit]"
same,Potency,[8],"inconclusive: 24.3 µM [cytotoxic, partial curve, poor fit]"
same,Potency,Aromatase (Homo sapiens),inactive and active: 27.3 µM
same,Potency,[9],"inconclusive: 68.6 µM [cytotoxic, partial curve, poor fit]"
